# This is one part of the list.
# B1: SRA-1 (Homo sapiens), P21757 (protein)
# chain: MEQWDHFHNQQEDTDSCSESVKFDARSMTALLPPNPKNSPSLQEKLKSFKAALIALYLLVFAVLIPLIGIVAAQLLKWETKNCSVSSTNANDITQSLTGKGNDSEEEMRFQEVFMEHMSNMEKRIQHILDMEANLMDTEHFQNFSMTTDQRFNDILLQLSTLFSSVQGHGNAIDEISKSLISLNTTLLDLQLNIENLNGKIQENTFKQQEEISKLEERVYNVSAEIMAMKEEQVHLEQEIKGEVKVLNNITNDLRLKDWEHSQTLRNITLIQGPPGPPGEKGDRGPTGESGPRGFPGPIGPPGLKGDRGAIGFPGSRGLPGYAGRPGNSGPKGQKGEKGSGNTLTPFTKVRLVGGSGPHEGRVEILHSGQWGTICDDRWEVRVGQVVCRSLGYPGVQAVHKAAHFGQGTGPIWLNEVFCFGRESSIEECKIRQWGTRACSHSEDAGVTCTL
# What was measured:
# Assay in all cases: glycan array binding signal (z-score within array); higher = stronger binding
# Conditions in all cases: glycan notation: IUPAC condensed, linker removed
# GalNAc(b1-4)GlcNAc = target: GalNAc(b1-4)GlcNAc
# How it was run: (§1)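 Negative Z-scores can be read as non-binding. The Z-score is calculated within each array and then averaged across arrays of one protein sequence at different concentrations or buffers and across linkers. Arrays, 3228 in all, were curated from the Consortium for Functional Glycomics database and kept only where the protein sequence was available.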
# [1] = target: GalNAc(b1-4)GlcNAc(b1-2)Man
# How it was run: as §1
# [2] = target: GalNAc(b1-4)GlcNAc(b1-2)Man(a1-3)[GalNAc(b1-4)GlcNAc(b1-2)Man(a1-6)]Man(b1-4)GlcNAc(b1-4)GlcNAc
# How it was run: as §1
# [3] = target: GalNAc(b1-4)GlcNAc(b1-3)GalNAc(b1-4)GlcNAc
# How it was run: as §1
# GalNAc(b1-4)GlcNAc6S = target: GalNAc(b1-4)GlcNAc6S
# How it was run: as §1
# GalNAc(b1-6)GalNAc = target: GalNAc(b1-6)GalNAc
# How it was run: as §1
# GalNAc3S(b1-4)GlcNAc = target: GalNAc3S(b1-4)GlcNAc
# How it was run: as §1
# GalNAc3S(b1-4)GlcNAc3S = target: GalNAc3S(b1-4)GlcNAc3S
# How it was run: as §1
# [4] = target: GalNAc3S(b1-4)[Fuc(a1-3)]GlcNAc
# How it was run: as §1
# GalNAc4S6S(b1-4)GlcNAc = target: GalNAc4S6S(b1-4)GlcNAc
# How it was run: as §1
# GalNAc6S(b1-4)GlcNAc = target: GalNAc6S(b1-4)GlcNAc
# How it was run: as §1
# Glc(a1-4)Glc = target: Glc(a1-4)Glc
# How it was run: as §1
# [5] = target: Glc(a1-4)Glc(a1-4)Glc(a1-4)Glc
# How it was run: as §1
# Glc(a1-6)Glc(a1-6)Glc = target: Glc(a1-6)Glc(a1-6)Glc
# How it was run: as §1
# [6] = target: Glc(a1-6)Glc(a1-6)Glc(a1-6)Glc
# How it was run: as §1
# Glc(b1-4)Glc = target: Glc(b1-4)Glc
# How it was run: as §1
# Glc(b1-6)Glc = target: Glc(b1-6)Glc
# How it was run: as §1
# GlcA(b1-3)Gal = target: GlcA(b1-3)Gal
# How it was run: as §1
# GlcA(b1-3)GlcNAc = target: GlcA(b1-3)GlcNAc
# How it was run: as §1
# GlcA(b1-6)Gal = target: GlcA(b1-6)Gal
# How it was run: as §1
# [7] = target: GlcA3S(b1-3)Gal(b1-4)GlcNAc(b1-2)Man
# How it was run: as §1
# [8] = target: GlcA3S(b1-3)Gal(b1-4)GlcNAc(b1-3)Gal(b1-4)Glc
# How it was run: as §1
# [9] = target: GlcNAc(a1-3)Gal(b1-4)GlcNAc
# How it was run: as §1
# [10] = target: GlcNAc(a1-4)Gal(b1-3)GlcNAc
# How it was run: as §1
# [11] = target: GlcNAc(a1-4)Gal(b1-4)GalNAc
# How it was run: as §1
# [12] = target: GlcNAc(a1-4)Gal(b1-4)GlcNAc
# How it was run: as §1
# [13] = target: GlcNAc(a1-4)Gal(b1-4)GlcNAc(b1-3)Gal(b1-4)Glc
# How it was run: as §1
# [14] = target: GlcNAc(a1-4)Gal(b1-4)GlcNAc(b1-3)Gal(b1-4)GlcNAc
# How it was run: as §1
# [15] = target: GlcNAc(a1-4)Gal(b1-4)GlcNAc(b1-3)Gal(b1-4)GlcNAc(b1-3)Gal(b1-4)GlcNAc
# How it was run: as §1
# [16] = target: GlcNAc(a1-4)Gal(b1-4)GlcNAc(b1-3)Gal(b1-4)[Fuc(a1-3)]GlcNAc(b1-3)Gal(b1-4)[Fuc(a1-3)]GlcNAc
# How it was run: as §1
# [17] = target: GlcNAc(a1-6)Gal(b1-4)GlcNAc
# How it was run: as §1
# [18] = target: GlcNAc(b1-2)Gal(b1-3)GalNAc
# How it was run: as §1
# [19] = target: GlcNAc(b1-2)Man(a1-3)[GlcNAc(b1-2)Man(a1-6)]Man(b1-4)GlcNAc(b1-4)GlcNAc
# How it was run: as §1
# [20] = target: GlcNAc(b1-2)Man(a1-3)[GlcNAc(b1-2)Man(a1-6)]Man(b1-4)GlcNAc(b1-4)[Fuc(a1-6)]GlcNAc
# How it was run: as §1
# [21] = target: GlcNAc(b1-2)Man(a1-3)[GlcNAc(b1-4)][GlcNAc(b1-2)Man(a1-6)]Man(b1-4)GlcNAc(b1-4)GlcNAc
# How it was run: as §1
# [22] = target: GlcNAc(b1-2)Man(a1-3)[GlcNAc(b1-4)][GlcNAc(b1-2)Man(a1-6)]Man(b1-4)GlcNAc(b1-4)[Fuc(a1-6)]GlcNAc
# How it was run: as §1
# [23] = target: GlcNAc(b1-2)[GlcNAc(b1-4)]Man(a1-3)[GlcNAc(b1-2)Man(a1-6)]Man(b1-4)GlcNAc(b1-4)GlcNAc
# How it was run: as §1
binder,measurement,setting,value
B1,glycan array binding signal (z-score),GalNAc(b1-4)GlcNAc,1.24
same,glycan array binding signal (z-score),[1],-0.006
same,glycan array binding signal (z-score),[2],-0.175
same,glycan array binding signal (z-score),[3],-0.387
same,glycan array binding signal (z-score),GalNAc(b1-4)GlcNAc6S,-0.142
same,glycan array binding signal (z-score),GalNAc(b1-6)GalNAc,-0.341
same,glycan array binding signal (z-score),GalNAc3S(b1-4)GlcNAc,-0.066
same,glycan array binding signal (z-score),GalNAc3S(b1-4)GlcNAc3S,0.296
same,glycan array binding signal (z-score),[4],-0.274
same,glycan array binding signal (z-score),GalNAc4S6S(b1-4)GlcNAc,0.43
same,glycan array binding signal (z-score),GalNAc6S(b1-4)GlcNAc,-0.594
same,glycan array binding signal (z-score),Glc(a1-4)Glc,-0.121
same,glycan array binding signal (z-score),[5],-0.104
same,glycan array binding signal (z-score),Glc(a1-6)Glc(a1-6)Glc,-0.085
same,glycan array binding signal (z-score),[6],0.295
same,glycan array binding signal (z-score),Glc(b1-4)Glc,-0.089
same,glycan array binding signal (z-score),Glc(b1-6)Glc,-0.651
same,glycan array binding signal (z-score),GlcA(b1-3)Gal,-0.139
same,glycan array binding signal (z-score),GlcA(b1-3)GlcNAc,0.159
same,glycan array binding signal (z-score),GlcA(b1-6)Gal,-0.198
same,glycan array binding signal (z-score),[7],-0.242
same,glycan array binding signal (z-score),[8],0.861
same,glycan array binding signal (z-score),[9],-0.37
same,glycan array binding signal (z-score),[10],-0.409
same,glycan array binding signal (z-score),[11],-0.192
same,glycan array binding signal (z-score),[12],-0.118
same,glycan array binding signal (z-score),[13],-0.319
same,glycan array binding signal (z-score),[14],-0.019
same,glycan array binding signal (z-score),[15],-0.483
same,glycan array binding signal (z-score),[16],0.578
same,glycan array binding signal (z-score),[17],-0.155
same,glycan array binding signal (z-score),[18],0.299
same,glycan array binding signal (z-score),[19],-0.325
same,glycan array binding signal (z-score),[20],-0.359
same,glycan array binding signal (z-score),[21],0.113
same,glycan array binding signal (z-score),[22],-0.285
same,glycan array binding signal (z-score),[23],-0.114

# — the supplement of paper PMC8728848
